Records with an inconclusive call do not appear. Not every entry of the source has a single result; some have several. Only these are listed. There may be further records. Values given together repeat one measurement across runs, samples, wells, individuals or studies. Counts like (3×) say how often a value occurs here.
Tested on: MX-1 breast xenograft, nude mice, tumor weight T/C
Test: NCI In Vivo Anticancer Drug Screen. Data for tumor model Human Mammary Carcinoma MX-1 Xenograft (intrarenal inoculation) in NU/NU Swiss (nude) mice
Conditions: endpoint: mean tumor weight change, higher = larger tumour
In short: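 Activity is given as a ratio, with each measurement in the compound-treated arm divided by the matching measurement in vehicle-dosed controls. Tumour size or survival serves as the measured parameter.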

[1] = dose: 300.0 mg/kg/injection, schedule: Q04DX003 (sc), vehicle: saline with Tween-80
[2] = dose: 4.0 mg/kg/injection, schedule: Q01DX010 (sc), vehicle: saline

ClCCCN1CCCCC1CCl (stereo not given)
T/C (dose: 6.25 mg/kg/injection, schedule: Q04DX003 (sc), vehicle: saline): 114 % of control and 183 % of control

Nc1ncnc2c1ncn2C1OC(CO)C(O)C1O (stereo not given)
T/C (dose: 800.0 mg/kg/injection, schedule: Q04DX003 (sc), vehicle: saline): 80 % of control and 109 % of control

O=C(O)C(CSC(c1ccccc1)(c1ccccc1)c1ccccc1)N=Cc1cccs1 (stereo not given)
T/C (dose: 100.0 mg/kg/injection, schedule: Q04DX003 (sc), vehicle: suspension in saline): 68 % of control and 120 % of control
T/C (dose: 200.0 mg/kg/injection, schedule: Q04DX003 (sc), vehicle: suspension in saline): 37 % of control, 79 % of control, 116 % of control
T/C (dose: 400.0 mg/kg/injection, schedule: Q04DX003 (sc), vehicle: suspension in saline): 17 % of control, 71 % of control, 81 % of control

O=C(O)CC(NC(=O)CP(=O)(O)O)C(=O)O.[NH-]C1CCCCC1[NH-].[Pt+2] (stereo not given)
T/C (dose: 50.0 mg/kg/injection, schedule: Q04DX003 (sc), vehicle: dextrose): 14 % of control and 52 % of control

CC[C@@]1(O)C[C@H](OC2CC(N(C)C)C(OC3CC(O)C(OC4CCC(=O)C(C)O4)C(C)O3)C(C)O2)c2c(cc3c(c2O)C(=O)c2c(O)cccc2C3=O)[C@H]1C(=O)OC (stereo not given in full)
T/C (dose: 1.0 mg/kg/injection, schedule: Q01DX010 (ip), vehicle: water): 34 % of control and 61 % of control
T/C (dose: 2.0 mg/kg/injection, schedule: Q01DX010 (sc), vehicle: water): 62 % of control and 121 % of control

CO[C@H](C(=O)[C@@H](O)[C@@H](C)O)[C@@H]1Cc2cc3cc(OC4CC(OC5CC(O)C(O)C(C)O5)C(O)C(C)O4)c(C)c(O)c3c(O)c2C(=O)[C@H]1OC1CC(OC2CC(OC3CC(C)(O)C(O)C(C)O3)C(O)C(C)O2)C(O)C(C)O1 (stereo not given in full)
T/C (dose: 0.5 mg/kg/injection, schedule: Q01DX010 (sc), vehicle: saline): -100 % of control and 55 % of control
T/C (dose: 1.0 mg/kg/injection, schedule: Q01DX010 (sc), vehicle: saline): -69 % of control and -8 % of control

CC(Cc1ccc(O)cc1)NCC(O)c1ccc(O)c(O)c1 (stereo not given)
T/C [1]: 63 % of control and 94 % of control

CC1(C)OC2C(COC(=O)c3ccc([N+](=O)[O-])cc3)OC(NC(=O)N(CCCl)N=O)C2O1 (stereo not given)
T/C [1]: 20 % of control (2×) and 55 % of control
T/C (dose: 600.0 mg/kg/injection, schedule: Q04DX003 (sc), vehicle: saline with Tween-80): 3 % of control, 41 % of control, 77 % of control

CN(CO)c1nc(N(C)CO)nc(N(C)CO)n1
T/C (dose: 50.0 mg/kg/injection, schedule: Q01DX010 (sc), vehicle: suspension in saline): -100 % of control and -35 % of control
T/C (dose: 75.0 mg/kg/injection, schedule: Q04DX003 (sc), vehicle: saline): -57 % of control, 4 % of control, 8 % of control
T/C (dose: 75.0 mg/kg/injection, schedule: Q04DX003 (sc), vehicle: suspension in saline): -98 % of control, 1 % of control, 12 % of control
T/C (dose: 150.0 mg/kg/injection, schedule: Q04DX003 (sc), vehicle: suspension in saline): -100 % of control (2×) and -69 % of control

CNC(=O)/C=C/C1=CN2C(=O)c3ccc(C)c(O)c3NC(OC)C2C1 (stereo not given)
T/C (dose: 0.4 mg/kg/injection, schedule: Q04DX003 (sc), vehicle: saline): -100 % of control and 72 % of control
T/C (dose: 0.8 mg/kg/injection, schedule: Q04DX003 (sc), vehicle: saline): -100 % of control and 19 % of control

CC(C)[NH-].CC(C)[NH-].O.O.[Cl][Pt+2][Cl]
T/C (dose: 12.5 mg/kg/injection, schedule: Q01DX010 (sc), vehicle: dextrose): -79 % of control and -10 % of control

[Cl][Pt+2][Cl].[NH-]C1CCC1.[NH2-]
T/C (dose: 12.5 mg/kg/injection, schedule: Q04DX003 (sc), vehicle: suspension in saline): -100 % of control and 27 % of control

COC12C(COC(N)=O)C3=C(C(=O)C(C)=C(N)C3=O)N1CC1C2N1C (stereo not given)
T/C [2]: -80 % of control and -34 % of control

CC(=O)Nc1ccc(C(=O)C=O)cc1
T/C (dose: 25.0 mg/kg/injection, schedule: Q01DX010 (sc), vehicle: saline with Tween-80): 96 % of control and 156 % of control
T/C (dose: 100.0 mg/kg/injection, schedule: Q01DX010 (sc), vehicle: saline with Tween-80): 121 % of control and 164 % of control

N[C@H](C(=O)O)[C@@H]1CC(Cl)=NO1
T/C (dose: 2.0 mg/kg/injection, schedule: Q01DX010 (sc), vehicle: saline): -52 % of control and 1 % of control
T/C [2]: -98 % of control, -84 % of control, -36 % of control
T/C (dose: 16.0 mg/kg/injection, schedule: Q01DX010 (sc), vehicle: saline): -92 % of control and 5 % of control

Cc1[nH]c(=O)[nH]c(=O)c1N(CCF)CCCl
T/C (dose: 40.0 mg/kg/injection, schedule: Q04DX003 (sc), vehicle: Klucel (hydroxypropylcellulose) (HPC)): -100 % of control, 1 % of control, 11 % of control
T/C (dose: 80.0 mg/kg/injection, schedule: Q04DX003 (sc), vehicle: Klucel (hydroxypropylcellulose) (HPC)): -100 % of control, -87 % of control, -74 % of control

COc1cc(NS(C)(=O)=O)ccc1Nc1c2ccccc2nc2ccccc12
T/C (dose: 1.5 mg/kg/injection, schedule: Q01DX010 (sc), vehicle: lactic acid): 35 % of control and 193 % of control
T/C (dose: 3.0 mg/kg/injection, schedule: Q01DX010 (sc), vehicle: lactic acid): 31 % of control and 106 % of control

C[N+](C)(C)c1cc2c(nn1)Nc1ccccc1S2
T/C (dose: 25.0 mg/kg/injection, schedule: Q01DX010 (sc), vehicle: Klucel (hydroxypropylcellulose) (HPC)): 76 % of control and 253 % of control

CN(C)C=O
T/C (dose: 400.0 mg/kg/injection, schedule: Q01DX010 (sc), vehicle: saline): 18 % of control, 32 % of control, 49 % of control
T/C (dose: 3200.0 mg/kg/injection, schedule: Q01DX010 (sc), vehicle: saline): 1 % of control, 8 % of control, 35 % of control

CS(=O)(=O)OCCCNCCCOS(C)(=O)=O
T/C (dose: 37.5 mg/kg/injection, schedule: Q04DX003 (sc), vehicle: saline): 3 % of control and 41 % of control

CC1OC(=O)C(C(C)C)NC(=O)C(C(C)C)OC(=O)C(C(C)C)NC(=O)C(C)OC(=O)C(C(C)C)NC(=O)C(C(C)C)OC(=O)C(C(C)C)NC(=O)C(C)OC(=O)C(C(C)C)NC(=O)C(C(C)C)OC(=O)C(C(C)C)NC1=O (stereo not given)
T/C (dose: 20.0 mg/kg/injection, schedule: Q01DX010 (sc), vehicle: saline with Tween-80): 46 % of control and 73 % of control

CC12CCC3C(CCC4CC(OC(=O)Cc5ccc(N(CCCl)CCCl)cc5)CCC43C)C1CCC(=O)N2 (stereo not given)
T/C (dose: 50.0 mg/kg/injection, schedule: Q04DX003 (sc), vehicle: saline with Tween-80): -98 % of control, -85 % of control, -18 % of control
T/C (dose: 100.0 mg/kg/injection, schedule: Q04DX003 (sc), vehicle: saline with Tween-80): -100 % of control, -96 % of control, -13 % of control
T/C (dose: 200.0 mg/kg/injection, schedule: Q04DX003 (sc), vehicle: saline with Tween-80): -100 % of control and -55 % of control

Cc1ncc([N+](=O)[O-])n1CCSC(N)=O
T/C (dose: 200.0 mg/kg/injection, schedule: Q01DX010 (sc), vehicle: saline with Tween-80): 16 % of control and 61 % of control
T/C (dose: 800.0 mg/kg/injection, schedule: Q01DX010 (sc), vehicle: saline with Tween-80): 48 % of control and 89 % of control
T/C (dose: 1600.0 mg/kg/injection, schedule: Q01DX010 (sc), vehicle: saline with Tween-80): 38 % of control and 72 % of control

CSc1ncnc2c1ncn2C1OC(CO)C(O)C1O (stereo not given)
T/C (dose: 37.5 mg/kg/injection, schedule: Q04DX003 (sc), vehicle: saline + alcohol): 41 % of control and 82 % of control

CCCCCCCCCCCCCCCC(=O)Nc1ccn(C2OC(CO)C(O)C2O)c(=O)n1 (stereo not given)
T/C (dose: 150.0 mg/kg/injection, schedule: Q04DX003 (sc), vehicle: water): 5 % of control and 92 % of control
T/C (dose: 300.0 mg/kg/injection, schedule: Q04DX003 (sc), vehicle: water): 1 % of control, 8 % of control, 85 % of control
T/C (dose: 600.0 mg/kg/injection, schedule: Q04DX003 (sc), vehicle: water): 1 % of control and 68 % of control

COC12[C@@H]3N[C@@H]3CN1C1=C(C(=O)C(NCCSSCCNC3=C(C)C(=O)C4=C(C3=O)C(COC(N)=O)[C@]3(OC)C5N[C@@H]5CN43)=C(C)C1=O)[C@@H]2COC(N)=O (stereo not given in full)
T/C (dose: 6.25 mg/kg/injection, schedule: Q04DX003 (ip), vehicle: DMSO): -100 % of control and 18 % of control

CC(=O)OCC1OC(n2ccc(N)nc2=O)C(OC(C)=O)C1OC(C)=O (stereo not given)
T/C (dose: 300.0 mg/kg/injection, schedule: Q04DX003 (sc), vehicle: suspension in saline): 38 % of control and 73 % of control
T/C (dose: 600.0 mg/kg/injection, schedule: Q04DX003 (sc), vehicle: suspension in saline): 36 % of control and 65 % of control
T/C (dose: 1200.0 mg/kg/injection, schedule: Q04DX003 (sc), vehicle: suspension in saline): 10 % of control and 85 % of control

— PubChem BioAssay AID296 (DTP/NCI, 2004)
